The BET-seq Pho4 binding data (Le et al. 2018)
Some of the results follow. These are noisy estimates, calculated here from bound and input reads.

molecular target: T1, Pho4 (S. cerevisiae) (UniProt P07270); assay: relative binding free energy (BET-seq); higher = weaker binding; settings: reference: library average
T1 sequence: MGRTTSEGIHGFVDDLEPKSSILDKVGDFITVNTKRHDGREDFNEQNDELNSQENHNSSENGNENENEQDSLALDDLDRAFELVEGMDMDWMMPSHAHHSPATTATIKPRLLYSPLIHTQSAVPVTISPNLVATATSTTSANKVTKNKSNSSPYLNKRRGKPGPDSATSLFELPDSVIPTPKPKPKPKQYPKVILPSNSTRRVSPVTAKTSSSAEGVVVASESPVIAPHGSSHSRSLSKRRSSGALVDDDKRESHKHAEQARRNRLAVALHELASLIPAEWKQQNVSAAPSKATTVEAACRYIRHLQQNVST

Sequence	relative binding free energy [kcal/mol]
GGGTACACGTGATGTT	0.2
TAAAACACGTGTGAGG	0.19
GTGGGCACGTGAAGTT	0.27
GAGGGCACGTGTCGTG	-0.01
GTGTGCACGTGGTAAT	0.04
TTTGGCACGTGCTTTG	-0.16
GATGGCACGTGGGTAC	-0.03
TGGGGCACGTGTCGGC	-0.27
GGTAGCACGTGGTAGG	-0.11
TTTTTCACGTGTATGC	0.34
CGTGGCACGTGAAAGT	0
CAGTGCACGTGCGATG	0.05
TGGTGCACGTGTGTCT	-0.06
AGTGCCACGTGTGGGG	-0.07
TGTCACACGTGTTTGC	0.15
CTAACCACGTGGGTGG	-0.1
AATGGCACGTGTGCTG	-0.13
AGGTACACGTGGGGGT	-0.11
TTGCTCACGTGGTCGT	0.25
CAAAGCACGTGGGGTT	-0.29
TGGTACACGTGAAGAG	0.23
TTTAACACGTGGGGCT	-0.04
GGTTGCACGTGGGACG	-0.07
GTTCACACGTGAGTTT	0.31
GAGGACACGTGGGGAT	0.07

Sequence	relative binding free energy [kcal/mol]
GGGGTCACGTGGAGCA	0.12
ATGGTCACGTGCTGTT	-0.02
AGTTGCACGTGATTGG	0.15
CAGATCACGTGTGGAT	0.27
CTGTGCACGTGTGGAC	0.06
GCAGTCACGTGGGGAT	0.04
TAAATCACGTGGTGGT	0.16
ATAAGCACGTGGTGGA	-0.14
ATAAACACGTGTGTTG	-0.07
TGATACACGTGTGATG	0.02
TTCGGCACGTGTGGCG	-0.03
AGGGGCACGTGAATTT	0.18
TTCGGCACGTGACGGT	-0.04
AGGTTCACGTGAAGAA	0.39
TAGGTCACGTGTTACT	0.17
GAGTACACGTGGTTTG	0.09
TTTGCCACGTGATATA	0.13
AAATTCACGTGACTGG	0.42
CGGGGCACGTGTAGGG	-0.06
CAGATCACGTGAGGGT	0.23
TACATCACGTGGTGGA	-0.02
TTAGACACGTGTATGG	0.07
TATTACACGTGTACTT	0.19
TGTTGCACGTGATTGG	0.17
GGGTGCACGTGTCATT	0.06

Sequence	relative binding free energy [kcal/mol]
TACTGCACGTGTTAAT	0.08
GAGGGCACGTGGAGTT	0
TTCGTCACGTGCTGTG	-0.03
TTCGACACGTGAGTTG	0.27
TTATGCACGTGTATGG	-0.03
TGCGGCACGTGGAAAG	0.11
ATGTACACGTGAATAT	0.28
TAGAGCACGTGAGCGT	0.15
TGTAGCACGTGCTCTG	-0.02
CTTTGCACGTGTAAAT	0.12
ATATTCACGTGGTTAC	0.23
GGTTTCACGTGTTAAC	0.35
CTTGGCACGTGACGTG	0.02
GGCTTCACGTGTTTTG	0.4
GTGTACACGTGGAGTA	0.09
ATTTTCACGTGACATG	0.2
GTATCCACGTGTGGGC	0.23
TCTTGCACGTGTTAGG	0.01
TGAGGCACGTGGATAT	-0.16
GTAGACACGTGGATAG	0.09
GTAAGCACGTGAATAG	0.37
GTTGTCACGTGAATGT	0.25
TGGAGCACGTGGCATA	-0.14
